# Data taken from PubChem BioAssay AID651812 (National Center for Advancing Translational Sciences (NCATS), 2012).
# Screen size: about 2,100 compounds; about 650 (31%) were called active. Inconclusive results, whose numbers are uncertain, are shown with a selection of clear calls. Calls follow the shape of the dose curve; as a rule, active = well fitted inhibition curve with a large enough effect; inconclusive = small, poorly fitted or top-dose-only effect; inactive = flat fitted curve, though single readings scatter. No potency is given beside an inconclusive call; the fits are too rough.
# Experiment: qHTS for inhibitors of Vif-A3G interactions: Cherry picks; also: nearly all actives have a fitted effect of over 80% in size; as to activity, negative = fluorescence increase: % of control where 0% means no effect
# Settings: HeLa A3G-eYFP + Vif (tagged APOBEC3G with the HIV-1 protein that degrades it), 24 h; Potency: eYFP fluorescence increase unless noted; activity, negative = fluorescence increase: at 36.9 µM (top of the series) unless noted
# Outline: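 Cherry-picked compounds tested at several concentrations on A3G-eYFP/Vif HeLa cells for 24 hours; loss of Vif-driven degradation read as eYFP fluorescence by cytometric plate imaging, 488 nm excitation, 500-530 nm emission.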
# Potency is read from the fitted curve at half-maximal effect; tags tell the direction and shape of the fitted curve.
Structure (SMILES),Potency,"activity, negative = fluorescence increase"
Cc1ccc2nsnc2c1NC(=O)c1ccc(-c2cc(Cl)ccc2Cl)o1,active: 15.8 µM,–
CC(=O)N/N=C/c1cc(C(C)C)cc(/C=N/NC(C)=O)c1O,active: 23.1 µM,–
Cc1cccc2cc3c(N)c(C(=O)N4CCOCC4)sc3nc12,"inconclusive [inhibitor, single point]",–
CN(C)CCOc1ccc2c(c1)C(=O)C(=Cc1ncc([N+](=O)[O-])n1C)C2,"inconclusive [inhibitor, single point]",–
COc1cccc2sc(Nc3nc(-c4cc5ccccc5oc4=O)cs3)nc12,–,inactive: -3.79%
O=C1COc2ccc(C(=O)CSc3nc4ccccc4c(=O)n3-c3ccc(Cl)c(Cl)c3)cc2N1,"inconclusive [inhibitor, single point]",–
N#CC1=C(S)N(c2ccc(F)cc2)C2(CCCCC2)NC1=O,–,inactive: -2.54% [at 46.1 µM]
CCOc1cc(/C=C2\N=C(SC(C)C(N)=O)N(c3ccc(OC(F)F)cc3)C2=O)ccc1O (stereo unspecified),"inconclusive [inhibitor, single point]",–
Cc1cc2nc(-c3ccc(SCC(=O)Nc4ccc(S(=O)(=O)N5CCCC5)cc4)nc3)[nH]c2cc1C,–,inactive: -11% [at 46.1 µM]
COc1ccc(Nc2nc3cc(C)ccc3cc2C#N)c(OC)c1,"inconclusive [inhibitor, single point]",–
S=C(NN=Cc1ccccn1)Nc1ccccn1,–,inactive: -1.96% [at 46.1 µM]
CC(=O)C1=C(C)NC(SCC(=O)c2ccc(Cl)cc2)=C(C#N)C1c1ccco1 (stereo unspecified),"inconclusive [inhibitor, single point]",–
CCOc1ccc(N/C=C/C(=O)c2cc(OC)c(OC)c(OC)c2)cc1,–,inactive: -4.87%
CCOC(=O)c1c(NC(=O)CSc2nc3ccc(OC)cc3[nH]2)sc2c1CC(C)(C)NC2(C)C,"inconclusive [inhibitor, single point]",–
CCOC(=S)SCC(=O)N1CCc2cc(OC)ccc2C1C1C(=O)CCCC1=O (stereo unspecified),–,inactive: -8.79%
CN(C)c1ccc(/C=C/C(=O)c2ccc(O)cc2)cc1,"inconclusive [inhibitor, single point]",–
COc1ccc(C2=CC(c3ccc(N(C)C)cc3)n3nnnc3N2)cc1 (stereo unspecified),"inconclusive [inhibitor, single point]",–
COc1ccc(/C=C2\CN(Cc3ccccc3)C/C(=C\c3ccc(OC)c(O)c3)C2=O)cc1O,"inconclusive [inhibitor, single point]",–
N=C1C(c2nc3ccccc3[nH]2)=C(O)CN1c1ccccc1,–,inactive: -5.41%
CCNc1ccc(Br)cc(C(=O)/C=C/c2ccccc2Cl)c1=O,"inconclusive [inhibitor, single point]",–
COc1ccc(NC(=O)COC(=O)c2cc(OC)c(OC)cc2NC(=O)c2ccco2)cc1OC,"inconclusive [inhibitor, partial curve]",–
Nc1nc2n[nH]nc2c(=O)[nH]1,"inconclusive [inhibitor, single point]",–
O=C(/C=C/c1ccc([N+](=O)[O-])o1)NNC(=O)c1ccc(F)cc1,"inconclusive [inhibitor, full curve, poor fit]",–
Cc1ccc(NC(=O)c2ccc(NCC3CCCO3)c([N+](=O)[O-])c2)cc1Cl (stereo unspecified),active: 16.4 µM,–

Structure (SMILES),Potency,"activity, negative = fluorescence increase"
COc1ccc(C(=O)c2sc3nc4c(c(C(F)(F)F)c3c2N)CN(C(C)=O)CC4)cc1OC,active: 18.4 µM,–
O=C1CCC/C(=N/NC(=O)c2sc3ccccc3c2Cl)C1,"inconclusive [inhibitor, single point]",–
CCOC(=O)c1sc(NC(=S)NC(=O)c2ccco2)nc1C,–,inactive: 10.5% [at 46.1 µM]
CC1=CC(C)(C)Nc2ccc(OC(=O)CN3C(=O)C4CCCCC4C3=O)cc21 (stereo unspecified),"inconclusive [inhibitor, single point]",–
COc1ccc(S(=O)(=O)N2c3ccccc3OCC2CC(=O)O)cc1 (stereo unspecified),–,inactive: -10.8%
Cc1ccc(/C=C2/NC(=O)N(Cc3ccccc3F)C2=O)s1,"inconclusive [inhibitor, single point]",–
COc1ccc(N/C=C/c2nc(SC)nnc2C)cc1,–,inactive: -23.1% [at 46.1 µM]
CCCCCCCNc1ccc(/C=C/c2ccnc3ccccc23)cc1,"inconclusive [inhibitor, single point]",–
COc1cccc(C2Nc3ccc4ccccc4c3C3=C2C(=O)CCC3)c1O (stereo unspecified),"inconclusive [inhibitor, single point]",–
Cc1ccc(CNc2nc3ccc(Cl)cc3n3nnnc23)cc1,"inconclusive [inhibitor, single point]",–
COc1cccc(/C=N/n2c(C3CCCCC3)n[nH]c2=S)c1O,–,inactive: 8.61% [at 46.1 µM]
COc1ccc(C2C(C#N)=C(N)Oc3c2ccc2cccnc32)cc1OC (stereo unspecified),–,inactive: -2.64%
COc1cccc(CNCCSc2nnnn2C)c1OCc1ccc(F)cc1,–,inactive: 2.21% [at 46.1 µM]
Fc1cccc(F)c1/C=N/NC(=S)Nc1cccnc1,–,inactive: 9.86% [at 46.1 µM]
Cn1nnc2c[n+](CC(=O)c3ccc(Cl)cc3)cc(Br)c21,"inconclusive [inhibitor, partial curve]",–
COCCN(CCOC)Cc1c(O)ccc2c1O/C(=C\c1ccc(C)o1)C2=O,"inconclusive [inhibitor, single point]",–
Cc1nc(NC(=O)/C=C/c2ccco2)sc1C,–,inactive: -4.83%
Cc1ccc(N2C(=O)c3cccc4c(N5CCN(C)CC5)ccc(c34)C2=O)c2cccnc12,"inconclusive [inhibitor, single point]",–
CC(=O)Nc1ccc(S(=O)(=O)Nc2nc3ccccc3nc2Nc2ccc3ccccc3c2)cc1,–,inactive: -25.1% [at 46.1 µM]
O=C(CCl)N1c2ccccc2Oc2ccc3ccccc3c21,"inconclusive [inhibitor, single point]",–
CCOC(=O)C1=C(C)N(CC(C)C)C(=O)/C1=C\c1cccs1,"inconclusive [inhibitor, single point]",–
COC(=O)c1sc2nc(CSc3ccc(Br)cc3)[nH]c(=O)c2c1C,"inconclusive [inhibitor, single point]",–
O=C(N=c1ccn(-c2nc3ccccc3nc2NS(=O)(=O)c2ccccc2)cc1)c1cccs1,"inconclusive [inhibitor, single point]",–
Cc1ccc(NC(=O)N2CC=C(c3c[nH]c4ccccc34)CC2)cc1Cl,"inconclusive [inhibitor, single point]",–

Structure (SMILES),Potency,"activity, negative = fluorescence increase"
CC(Nc1oc(-c2ccc(COc3ccccc3)o2)nc1C#N)c1ccccc1 (stereo unspecified),"inconclusive [inhibitor, single point]",–
Cc1ccc(F)c(S(=O)(=O)NC(=O)C2(C)CCN2C(=O)Cc2ccc(Cl)cc2Cl)c1 (stereo unspecified),–,inactive: 3.77%
Cc1c(C(=O)Nc2cnccn2)oc2ccccc12,–,inactive: -1.49%
COCCNC(=S)N/N=C(\C)c1ccccc1O,–,inactive: -20.4% [at 46.1 µM]
Cc1ccc(C)c(NC(=O)N2CC=C(c3c[nH]c4ccccc34)CC2)c1,"inconclusive [inhibitor, single point]",–
CCN(CC)c1ccc(/C=C/C(=O)c2ccc(Br)cc2)cc1,active: 25.9 µM,–
CCOC(=O)CCc1ccc(NC(=O)/C=C/c2ccc([N+](=O)[O-])o2)cc1,active: 23.1 µM,–
COc1cc(C(=O)N/N=C/C2CC=CCC2)cc(OC)c1OC (stereo unspecified),–,inactive: -2.79%
O=C(CN1C(=O)CSc2ncccc21)Nc1cccc(Cl)c1,"inconclusive [inhibitor, single point]",–
Nc1c(C(=O)c2ccccc2)sc2snc(SCC(=O)c3ccccc3)c12,"inconclusive [inhibitor, single point]",–
CCOC(=O)Cc1ccc(Nc2nc3cc(-c4sccc4C)sc3c(=O)n2C)cc1,–,inactive: 1.41%
COc1cccc(Nc2ncccc2C(=O)NCc2ccccc2)c1,"inconclusive [inhibitor, single point]",–
Cc1ccc(S(=O)(=O)Nc2nc3ccccc3nc2Nc2cccc(S(=O)(=O)N3CCCC3)c2)cc1,"inconclusive [inhibitor, single point]",–
COc1cccc(C2=CC(c3cc(OC)ccc3OC)n3nnnc3N2)c1 (stereo unspecified),"inconclusive [inhibitor, single point]",–
Cc1ccc2nc(/C(C#N)=C\c3ccc(OC(=O)c4cccs4)cc3)[nH]c2c1,"inconclusive [inhibitor, single point]",–
COc1cccc(N=C2NC(=O)/C(=C/c3cc([N+](=O)[O-])ccc3O)S2)c1,"inconclusive [inhibitor, partial curve]",–
CCCCOc1ccc2c(c1)/C(=C(\C(Cl)=C(Cl)Cl)[N+](=O)[O-])N2,"inconclusive [inhibitor, partial curve, poor fit]",–
CCSc1ncc(Cl)c(C(=O)N2CCN(c3ccccc3OC)CC2)n1,"inconclusive [inhibitor, partial curve]",–
O=S(=O)(Nc1cc2nc3ccccc3nc2n1Cc1ccccc1)c1ccc(Cl)cc1,"inconclusive [inhibitor, single point]",–
CCOc1cc(/C=C2\CN(C)C/C(=C\c3ccc(O)c(OCC)c3)C2=O)ccc1O,"inconclusive [inhibitor, single point]",–
Cc1cc(/C=C2\SC(=S)N(Cc3ccco3)C2=O)c(C)n1-c1ccccc1,"inconclusive [inhibitor, single point]",–
N#C/C(=C\c1ccc(N2CCCCC2)o1)C(N)=O,"inconclusive [inhibitor, single point]",–
COc1ccc(OC)c(C2C=C(c3ccc(C)c(C)c3)Nc3nnnn32)c1 (stereo unspecified),–,inactive: -0.067%
